Tests used:
[1] = target: T1, human GPC3 on cells (HepG2 endogenous; CHO-K1 recombinant clones CHOK1-hGPC3.1C3, 2B5, 3E9) (human, UniProt P51654 25-554); experiment: FACS on HepG2 cells
T1 construct: Full-length human GPC3 (NCBI NM_004484.3) transfected into CHO-K1; HepG2 expresses GPC3 endogenously; also called CHO-K1-human GPC3 cells; HepG2 cells

[2] = target: T2, human GPC3 (Gln25-His559)-His protein (Acro, Cat. No. GP3-H52H4) (human, UniProt P51654 25-559); experiment: ELISA; antibody 10 nM
T2 construct: Bought protein; also called human GPC3-His protein; human GPC3-his protein; not shown: His tag
Method: (§1) After incubation for 2 h at 37° C., the plate was washed 3 times with PBS.

[3] = target: T3, monkey GPC3-His protein (Acro, Cat. No. GP3-05225) (monkey, UniProt A5A6P7 25-559); experiment: ELISA; antibody 10 nM
T3 construct: Bought protein; the soluble protein surely lacks signal peptide and C-terminal anchor region; also called monkey GPC3 protein; not shown: His tag
Method: as §1

[4] = target: T4, mouse GPC3-His protein (Sino Biological, Cat. No. 50989-M08B) (mouse, UniProt Q8CFZ4 25-558); experiment: ELISA; antibody 10 nM
T4 construct: Bought protein; also called mouse GPC3 protein; not shown: His tag
Method: as §1

[5] = target: T2, human GPC3 (Gln25-His559)-His protein …; experiment: ELISA; antibody 0.1 nM
Method: as §1

[6] = target: T3, monkey GPC3-His protein (Acro, Cat. No. …); experiment: ELISA; antibody 0.1 nM
Method: as §1

[7] = target: T2, human GPC3 (Gln25-His559)-His protein …; experiment: ELISA; antibody 100 nM
Method: as §1

[8] = target: T3, monkey GPC3-His protein (Acro, Cat. No. …); experiment: ELISA; antibody 100 nM
Method: as §1

[9] = target: T4, mouse GPC3-His protein (Sino …); experiment: ELISA; antibody 100 nM
Method: as §1

[10] = target: T2, human GPC3 (Gln25-His559)-His protein …; experiment: ELISA; antibody 0.01 nM
Method: as §1

[11] = target: T3, monkey GPC3-His protein (Acro, Cat. No. …); experiment: ELISA; antibody 0.01 nM
Method: as §1

[12] = target: T4, mouse GPC3-His protein (Sino …); experiment: ELISA; antibody 0.01 nM
Method: as §1

[13] = target: T2, human GPC3 (Gln25-His559)-His protein …; experiment: ELISA; antibody 0.001 nM
Method: as §1

[14] = target: T3, monkey GPC3-His protein (Acro, Cat. No. …); experiment: ELISA; antibody 0.001 nM
Method: as §1

[15] = target: T4, mouse GPC3-His protein (Sino …); experiment: ELISA; antibody 0.001 nM
Method: as §1

[16] = target: T2, human GPC3 (Gln25-His559)-His protein …; experiment: ELISA; antibody 0.0001 nM
Method: as §1

[17] = target: T3, monkey GPC3-His protein (Acro, Cat. No. …); experiment: ELISA; antibody 0.0001 nM
Method: as §1

[18] = target: T4, mouse GPC3-His protein (Sino …); experiment: ELISA; antibody 0.0001 nM
Method: as §1

[19] = target: T1, human GPC3 on cells (HepG2 endogenous; …); experiment: FACS on CHO-K1-human GPC3 cells
[20] = target: T2, human GPC3 (Gln25-His559)-His protein …; experiment: SPR (Biacore), antibody captured on Protein A chip
Method: (§2) The sample and running buffer was HBS-EP+ (10 mM HEPES, 150 mM NaCl, 3 mM EDTA, 0.05% surfactant P20) (GE Healthcare; BR-1006-69). The flow cell was set at 25° C. The sample block was set at 16° C. Both were pretreated with the running buffer. […] The association and dissociation processes of the antibody with the antigen protein were recorded, and finally, the chip was regenerated using Glycine pH 1.5 (GE Healthcare; BR-1003-54). […] The dissociation phase was monitored for up to 600 s and triggered by switching from the sample solution to the running buffer. The surface was regenerated by washing with 10 mM glycine solution (pH 1.5) at a flow rate of 30 μL/min for 30 s. The difference in bulk refractive index was corrected by subtracting the responses obtained from the goat anti-human Fc surface. Blank injections were also subtracted (double reference). To calculate the apparent KD and other kinetic parameters, the Langmuir 1:1 model was used.

[21] = target: T3, monkey GPC3-His protein (Acro, Cat. No. …); experiment: SPR (Biacore), antibody captured on Protein A chip
Method: as §2

T4 sequence (Q8CFZ4 25-558 limits assumed): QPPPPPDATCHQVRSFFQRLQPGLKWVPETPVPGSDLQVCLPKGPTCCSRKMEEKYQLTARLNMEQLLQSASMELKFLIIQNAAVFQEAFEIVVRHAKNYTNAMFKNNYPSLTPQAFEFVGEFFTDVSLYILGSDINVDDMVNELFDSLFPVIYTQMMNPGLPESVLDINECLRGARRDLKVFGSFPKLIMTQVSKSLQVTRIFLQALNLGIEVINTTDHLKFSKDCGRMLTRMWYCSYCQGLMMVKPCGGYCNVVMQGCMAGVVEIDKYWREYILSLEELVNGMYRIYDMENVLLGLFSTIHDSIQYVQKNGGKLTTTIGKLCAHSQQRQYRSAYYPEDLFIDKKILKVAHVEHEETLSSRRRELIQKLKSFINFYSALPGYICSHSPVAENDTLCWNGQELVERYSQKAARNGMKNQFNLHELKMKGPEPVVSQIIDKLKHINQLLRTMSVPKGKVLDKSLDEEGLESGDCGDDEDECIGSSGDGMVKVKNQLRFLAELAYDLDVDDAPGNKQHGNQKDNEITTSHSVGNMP
T3 sequence (A5A6P7 other isoform, or with tags, fused parts or gaps limits assumed): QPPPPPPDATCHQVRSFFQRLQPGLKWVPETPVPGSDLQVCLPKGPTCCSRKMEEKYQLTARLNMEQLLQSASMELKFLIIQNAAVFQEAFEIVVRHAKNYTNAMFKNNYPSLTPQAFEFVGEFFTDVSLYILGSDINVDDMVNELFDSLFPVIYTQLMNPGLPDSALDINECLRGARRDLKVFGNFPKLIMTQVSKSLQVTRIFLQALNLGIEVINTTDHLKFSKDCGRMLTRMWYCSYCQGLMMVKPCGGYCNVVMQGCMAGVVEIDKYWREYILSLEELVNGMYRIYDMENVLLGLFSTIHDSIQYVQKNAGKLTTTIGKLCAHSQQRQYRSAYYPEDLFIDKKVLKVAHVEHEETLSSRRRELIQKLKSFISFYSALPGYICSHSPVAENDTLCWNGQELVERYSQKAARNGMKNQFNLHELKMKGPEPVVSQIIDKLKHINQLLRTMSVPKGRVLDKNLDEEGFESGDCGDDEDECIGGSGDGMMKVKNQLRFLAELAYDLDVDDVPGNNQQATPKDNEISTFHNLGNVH

B1: Tab003 (Y035 scFv-hFc) (Fc fusion)
chain: DIVMTQTPLSLPVITGEPASISCRSSQSLVHSNGNTYLQWYLQKPGQSPQLLIYKVSNRFSGVPDRFSGSGSGTDFTLKISRVEAEDVGVYYCSQSIYVPYTFGQGTKLEIKRGGGGSGGGGSGGGGSEVQLVQSGAEVKKPGASVKVSCKASGYTFSDYEMHWVRQAPGQGLEWMGAIHPGSGDTAYNQRFKGRVTITADKSTSTAYMELSSLRSEDTAVYYCARFYSYAYWGQGTLVTVSA[human IgG1 Fc with changes left out]
notes: Control antibody: VL-(GGGGS)3-VH of Y035 fused to human IgG1 Fc; also called Y035 scFv-human IgG1 Fc
- EC50 [1]: 6.35 nM
- Max MFI [1]: 5170
- OD450 [2]: 2.06
- OD450 [3]: 1.95
- OD450 [4]: 0.051
- OD450 [5]: 1.44
- OD450 [6]: 1.43
- OD450 [7]: 2.2
- OD450 [8]: 2.28
- OD450 [9]: 0.073
- OD450 [10]: 0.506
- OD450 [11]: 0.364
- OD450 [12]: 0.046
- OD450 [13]: 0.268
- OD450 [14]: 0.077
- OD450 [15]: 0.049
- OD450 [16]: 0.107
- OD450 [17]: 0.048
- OD450 [18]: 0.048
- EC50 [19]: 4.79 nM
- Max MFI [19]: 11200
- Kd [20]: 1.36 nM
- koff [20]: 0.000358 s⁻¹
- kon [20]: 262000 M⁻¹ s⁻¹
- Kd [21]: 1.28 nM
- koff [21]: 0.000309 s⁻¹
- kon [21]: 242000 M⁻¹ s⁻¹

B2: S001-NB152-72-2 VHH-hFc (Fc fusion)
chain: QVQLVESGGGLVQAGGSLRLSCAASGSILSITAMNWHRQAPGKERELVASITNGGRTNYADSVKGRFTISRDRAKGTLYLQMNNLKPEDTAVYYCYARRWTGGDRPEYESWGQGTQVTVSS[human IgG1 Fc with changes left out]
notes: VHH recombined with human IgG1 Fc (VHH-hFc); the junction is not described
- EC50 [1]: 31.7 nM
- Max MFI [1]: 1030
- OD450 [2]: 2.25
- OD450 [3]: 2.16
- OD450 [4]: 2.34
- OD450 [5]: 1.01
- OD450 [6]: 1.31
- OD450 [7]: 2.2
- OD450 [8]: 2.25
- OD450 [9]: 2.48
- OD450 [10]: 0.194
- OD450 [11]: 0.236
- OD450 [12]: 0.278
- OD450 [13]: 0.109
- OD450 [14]: 0.063
- OD450 [15]: 0.063
- OD450 [16]: 0.084
- OD450 [17]: 0.046
- OD450 [18]: 0.042
- EC50 [19]: 21.6 nM
- Max MFI [19]: 2180
- Kd [20]: 11.6 nM
- koff [20]: 0.00178 s⁻¹
- kon [20]: 153000 M⁻¹ s⁻¹
- Kd [21]: 3.23 nM
- koff [21]: 0.000754 s⁻¹
- kon [21]: 234000 M⁻¹ s⁻¹

— US20240052055A1 (SIMCERE ZAIMING PHARMACEUTICAL, published 2024)
